Measurements taken from patent US12459974B2, “Bicyclic peptide ligands specific for Nectin-4” (priority 2018, dated 2025).
At least one peptide structure holds a part that was inferred or is arguable (an end, a ring closure or a residue). *1 amine or outer side, *2 acyl side, *3 side chain or, on linkers, in order; H or OH if unused. Where a SMILES comes first, the peptide text is derived from it. Bridges are numbered along the chain shown (N, C = ends). [ ]: non-standard residue; d: D form. TATA = O=C(CC[*:1])N1CN(C(=O)CC[*:2])CN(C(=O)CC[*:3])C1; Trp(5-F) = N[C@@H](Cc1c[nH]c2ccc(F)cc12)C(=O)O; 1Nal = N[C@@H](Cc1cccc2ccccc12)C(=O)O; Ser(ΨH,HPro) = O=C(O)[C@@H]1COCN1; hArg = N=C(N)NCCCC[C@H](N)C(=O)O; Aad = N[C@@H](CCCC(=O)O)C(=O)O; NMeC = CN[C@@H](CS)C(=O)O; hSer = N[C@@H](CCO)C(=O)O

Target: T1, human Nectin-4 (Homo sapiens, UniProt Q96NY8)
T1 sequence (Q96NY8 32-510): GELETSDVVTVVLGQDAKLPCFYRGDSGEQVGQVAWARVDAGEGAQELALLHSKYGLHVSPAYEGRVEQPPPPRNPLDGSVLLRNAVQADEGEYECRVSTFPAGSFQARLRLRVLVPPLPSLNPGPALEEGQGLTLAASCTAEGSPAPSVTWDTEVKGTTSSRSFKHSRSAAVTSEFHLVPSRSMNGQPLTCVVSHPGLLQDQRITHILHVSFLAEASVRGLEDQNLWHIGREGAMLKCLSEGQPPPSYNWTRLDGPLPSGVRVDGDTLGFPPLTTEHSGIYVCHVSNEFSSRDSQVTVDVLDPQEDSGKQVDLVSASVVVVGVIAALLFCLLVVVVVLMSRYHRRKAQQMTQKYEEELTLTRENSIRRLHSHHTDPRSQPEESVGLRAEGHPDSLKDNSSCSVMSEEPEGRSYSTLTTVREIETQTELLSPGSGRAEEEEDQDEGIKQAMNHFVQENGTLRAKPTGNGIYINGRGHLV
Assay: Nectin-4 competition binding assay (fluorescence polarisation)
Conditions: competition with fluorescent peptide SEQ ID NO: 217
Procedure, shortened: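 Serially diluted (1 in 2) peptides, max 5% DMSO, were mixed with human Nectin-4 and a fluorescent tracer peptide; FP read as in the direct binding assay. Ki from fitting mP values to a cubic competition equation using tracer concentration, tracer Kd and Nectin-4 concentration.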

Compound | Ki
CC[C@H](C)[C@@H]1NC(=O)[C@@H]2CCCN2C(=O)[C@H]([C@@H](C)O)NC(=O)[C@H](CO)NC(=O)[C@H](Cc2c[nH]c3ccccc23)NC(=O)[C@H](Cc2cscn2)NC(=O)[C@H](CCCCNC(=N)N)NC(=O)[C@H](CCSC)NC(=O)[C@@H]2CSCCC(=O)N3CN(CN(C3)C(=O)CCSC[C@H](NC(C)=O)C(=O)N3CCC[C@H]3C(=O)N[C@@H](Cc3ccccc3)C(=O)N[C@H](CC(=O)O)C(=O)N2)C(=O)CCSC[C@@H](C(N)=O)NC(=O)[C@H](Cc2c[nH]c3ccccc23)NC1=O [BCY7879, Ac-(SEQ ID NO: 125)] | 12.5 nM
CC[C@H](C)[C@@H]1NC(=O)[C@@H]2CCCN2C(=O)[C@H]([C@@H](C)O)NC(=O)[C@H](CO)NC(=O)[C@H](Cc2c[nH]c3ccccc23)NC(=O)[C@H](Cn2cncn2)NC(=O)[C@H](CCCCNC(=N)N)NC(=O)[C@H](CCSC)NC(=O)[C@@H]2CSCCC(=O)N3CN(CN(C3)C(=O)CCSC[C@H](NC(C)=O)C(=O)N3CCC[C@H]3C(=O)N[C@@H](Cc3ccccc3)C(=O)N[C@H](CC(=O)O)C(=O)N2)C(=O)CCSC[C@@H](C(N)=O)NC(=O)[C@H](Cc2c[nH]c3ccccc23)NC1=O [BCY7881, Ac-(SEQ ID NO: 126)] | 14.4 nM
CC[C@H](C)[C@@H]1NC(=O)[C@@H]2CCCN2C(=O)[C@H](Cn2cncn2)NC(=O)[C@H](CO)NC(=O)[C@H](Cc2c[nH]c3ccccc23)NC(=O)[C@H](CC(N)=O)NC(=O)[C@H](CCCCNC(=N)N)NC(=O)[C@H](CCSC)NC(=O)[C@@H]2CSCCC(=O)N3CN(CN(C3)C(=O)CCSC[C@H](NC(C)=O)C(=O)N3CCC[C@H]3C(=O)N[C@@H](Cc3ccccc3)C(=O)N[C@H](CC(=O)O)C(=O)N2)C(=O)CCSC[C@@H](C(N)=O)NC(=O)[C@H](Cc2c[nH]c3ccccc23)NC1=O [BCY7883, Ac-(SEQ ID NO: 127)] | 189 nM
CC[C@H](C)[C@@H]1NC(=O)[C@@H]2COCN2C(=O)[C@H]([C@@H](C)O)NC(=O)[C@H](CO)NC(=O)[C@H](Cc2c[nH]c3ccccc23)NC(=O)[C@H](CC(N)=O)NC(=O)[C@H](CCCCNC(=N)N)NC(=O)[C@H](CCSC)NC(=O)[C@@H]2CSCCC(=O)N3CN(CN(C3)C(=O)CCSC[C@H](NC(C)=O)C(=O)N3CCC[C@H]3C(=O)N[C@@H](Cc3ccccc3)C(=O)N[C@H](CC(=O)O)C(=O)N2)C(=O)CCSC[C@@H](C(N)=O)NC(=O)[C@H](Cc2c[nH]c3ccccc23)NC1=O [BCY7884, Ac-(SEQ ID NO: 128)] (Ac-CPF[dD]CM[hArg]NWST[Ser(ΨH,HPro)]IWC-NH2; linker 1-5-15 via TATA) | 223 nM
CC[C@H](C)[C@@H]1NC(=O)[C@@H]2CCCN2C(=O)[C@H]([C@@H](C)O)NC(=O)[C@H](CO)NC(=O)[C@H](Cc2c[nH]c3ccccc23)NC(=O)[C@H](CC(N)=O)NC(=O)[C@H](CCCCNC(=N)N)NC(=O)[C@H](CCSC)NC(=O)[C@@H]2CSCCC(=O)N3CN(CN(C3)C(=O)CCSC[C@H](NC(C)=O)C(=O)N3CCC[C@H]3C(=O)N[C@@H](Cc3ccc(O)c(O)c3)C(=O)N[C@H](CC(=O)O)C(=O)N2)C(=O)CCSC[C@@H](C(N)=O)NC(=O)[C@H](Cc2c[nH]c3ccccc23)NC1=O [BCY7886, Ac-(SEQ ID NO: 129)] | 15 nM
CC[C@H](C)[C@@H]1NC(=O)[C@@H]2CCCN2C(=O)[C@H](Cc2ccc(O)c(O)c2)NC(=O)[C@H](CO)NC(=O)[C@H](Cc2c[nH]c3ccccc23)NC(=O)[C@H](CC(N)=O)NC(=O)[C@H](CCCCNC(=N)N)NC(=O)[C@H](CCSC)NC(=O)[C@@H]2CSCCC(=O)N3CN(CN(C3)C(=O)CCSC[C@H](NC(C)=O)C(=O)N3CCC[C@H]3C(=O)N[C@@H](Cc3ccccc3)C(=O)N[C@H](CC(=O)O)C(=O)N2)C(=O)CCSC[C@@H](C(N)=O)NC(=O)[C@H](Cc2c[nH]c3ccccc23)NC1=O [BCY7887, Ac-(SEQ ID NO: 130)] | 21.4 nM
CC[C@H](C)[C@@H]1NC(=O)[C@@H]2CCCN2C(=O)[C@H]([C@@H](C)O)NC(=O)[C@H](CO)NC(=O)[C@H](Cc2c[nH]c3ccc(F)cc23)NC(=O)[C@H](CC(N)=O)NC(=O)[C@H](CCCCNC(=N)N)NC(=O)[C@H](CCSC)NC(=O)[C@@H]2CSCCC(=O)N3CN(CN(C3)C(=O)CCSC[C@H](NC(C)=O)C(=O)N3CCC[C@H]3C(=O)N[C@@H](Cc3ccccc3)C(=O)N[C@H](CC(=O)O)C(=O)N2)C(=O)CCSC[C@@H](C(N)=O)NC(=O)[C@H](Cc2c[nH]c3ccccc23)NC1=O [BCY7891, Ac-(SEQ ID NO: 133)] | 5 nM
CC[C@H](C)[C@@H]1NC(=O)[C@@H]2CCCN2C(=O)[C@H]([C@@H](C)O)NC(=O)[C@H](CO)NC(=O)[C@H](Cc2c[nH]c3ccccc23)NC(=O)[C@H](CC(N)=O)NC(=O)[C@H](CCCCNC(=N)N)NC(=O)[C@H](CCSC)NC(=O)[C@@H]2CSCCC(=O)N3CN(CN(C3)C(=O)CCSC[C@H](NC(C)=O)C(=O)N3CCC[C@H]3C(=O)N[C@@H](Cc3ccccc3)C(=O)N[C@H](CC(=O)O)C(=O)N2)C(=O)CCSC[C@@H](C(N)=O)NC(=O)[C@H](Cc2c[nH]c3ccc(F)cc23)NC1=O [BCY7892, Ac-(SEQ ID NO: 134)] (Ac-CPF[dD]CM[hArg]NWSTPI[Trp(5-F)]C-NH2; linker 1-5-15 via TATA; C-terminus assumed) | 9.5 nM
CC[C@H](C)[C@@H]1NC(=O)[C@@H]2CCCN2C(=O)[C@H]([C@@H](C)O)NC(=O)[C@H](CCO)NC(=O)[C@H](Cc2c[nH]c3ccccc23)NC(=O)[C@H](CC(N)=O)NC(=O)[C@H](CCCCNC(=N)N)NC(=O)[C@H](CCSC)NC(=O)[C@@H]2CSCCC(=O)N3CN(CN(C3)C(=O)CCSC[C@H](NC(C)=O)C(=O)N3CCC[C@H]3C(=O)N[C@@H](Cc3ccccc3)C(=O)N[C@H](CC(=O)O)C(=O)N2)C(=O)CCSC[C@@H](C(N)=O)NC(=O)[C@H](Cc2c[nH]c3ccccc23)NC1=O [BCY7908, Ac-(SEQ ID NO: 144)] (Ac-CPF[dD]CM[hArg]NW[hSer]TPIWC-NH2; linker 1-5-15 via TATA; C-terminus assumed) | 20 nM
CSCC[C@@H]1NC(=O)[C@@H]2CSCCC(=O)N3CN(CN(C3)C(=O)CCSC[C@H](NC(C)=O)C(=O)N3CCC[C@H]3C(=O)N[C@@H](Cc3ccccc3)C(=O)N[C@H](CC(=O)O)C(=O)N2)C(=O)CCSC[C@@H](C(N)=O)NC(=O)[C@H](Cc2c[nH]c3ccccc23)NC(=O)[C@H](CC2CC2)NC(=O)[C@@H]2CCCN2C(=O)[C@H]([C@@H](C)O)NC(=O)[C@H](CO)NC(=O)[C@H](Cc2c[nH]c3ccccc23)NC(=O)[C@H](CC(N)=O)NC(=O)[C@H](CCCCNC(=N)N)NC1=O [BCY7912, Ac-(SEQ ID NO: 146)] | 9 nM
CC[C@H](C)[C@@H]1NC(=O)[C@@H]2CCCN2C(=O)[C@H]([C@@H](C)O)NC(=O)[C@H](CO)NC(=O)[C@H](Cc2c[nH]c3ccccc23)NC(=O)[C@H](CC(N)=O)NC(=O)[C@H](CCCCNC(=N)N)NC(=O)[C@H](CCCC(N)=O)NC(=O)[C@@H]2CSCCC(=O)N3CN(CN(C3)C(=O)CCSC[C@H](NC(C)=O)C(=O)N3CCC[C@H]3C(=O)N[C@@H](Cc3ccccc3)C(=O)N[C@H](CC(=O)O)C(=O)N2)C(=O)CCSC[C@@H](C(N)=O)NC(=O)[C@H](Cc2c[nH]c3ccccc23)NC1=O [BCY7914, Ac-(SEQ ID NO: 148)] (Ac-CPF[dD]C[Aad](NH2)[hArg]NWSTPIWC-NH2; linker 1-5-15 via TATA; C-terminus assumed) | 62 nM
CC[C@H](C)[C@@H]1NC(=O)[C@@H]2CCCN2C(=O)[C@H]([C@@H](C)O)NC(=O)[C@H](CO)NC(=O)[C@H](Cc2c[nH]c3ccccc23)NC(=O)[C@H](CC(N)=O)NC(=O)[C@H](CCCCNC(=N)N)NC(=O)[C@H](CCSC)NC(=O)[C@@H]2CSCCC(=O)N3CN(CN(C3)C(=O)CCSC[C@H](NC(C)=O)C(=O)N3CCC[C@H]3C(=O)N[C@@H](Cc3ccccc3)C(=O)N[C@H](CC(=O)O)C(=O)N2C)C(=O)CCSC[C@@H](C(N)=O)NC(=O)[C@H](Cc2c[nH]c3ccccc23)NC1=O [BCY7973, Ac-(SEQ ID NO: 151)] (Ac-CPF[dD][NMeC]M[hArg]NWSTPIWC-NH2; linker 1-5-15 via TATA; C-terminus assumed) | 4 nM
CC[C@H](C)[C@@H]1NC(=O)[C@H](CCCNC(=N)N)NC(=O)[C@H](CC(N)=O)NC(=O)[C@@H]2CSCCC(=O)N3CN(CN(C3)C(=O)CCSC[C@H](NC(=O)[C@H](Cc3c[nH]c4ccccc34)NC(=O)[C@@H](CC(=O)O)NC(=O)[C@H](CCC(N)=O)NC(C)=O)C(=O)N[C@@H](C)C(=O)N3CCC[C@H]3C(=O)N[C@@H](CC(C)C)C(=O)N[C@@H](CO)C(=O)N[C@@H](CC(=O)O)C(=O)N[C@@H](Cc3ccc(O)cc3)C(=O)N[C@@H](Cc3c[nH]c4ccccc34)C(=O)N2)C(=O)CCSC[C@@H](C(N)=O)NC1=O [BCY7993, Ac-Q[dD]W-(SEQ ID NO: 34)] (Ac-Q[dD]WCAPLSDYWCNRIC-NH2; linker 4-12-16 via TATA; C-terminus assumed) | 38 nM
CC[C@H](C)[C@@H]1NC(=O)[C@H](CCCNC(=N)N)NC(=O)[C@H](CC(N)=O)NC(=O)[C@@H]2CSCCC(=O)N3CN(CN(C3)C(=O)CCSC[C@H](NC(=O)[C@H](Cc3cccc4ccccc34)NC(=O)[C@H](CCCCN)NC(=O)[C@H](CCC(N)=O)NC(C)=O)C(=O)N[C@@H](C)C(=O)N3CCC[C@H]3C(=O)N[C@@H](CC(C)C)C(=O)N[C@@H](CO)C(=O)N[C@@H](CC(=O)O)C(=O)N[C@@H](Cc3ccc(O)cc3)C(=O)N[C@@H](Cc3c[nH]c4ccccc34)C(=O)N2)C(=O)CCSC[C@@H](C(N)=O)NC1=O [BCY7996, Ac-QK[1Nal]-(SEQ ID NO: 34)] (Ac-QK[1Nal]CAPLSDYWCNRIC-NH2; linker 4-12-16 via TATA; C-terminus assumed) | 21 nM
